# Data as given in the supplement of paper PMC11417369.
# This is one part of the list.
# Tested on: PfSIP2 AP2 domain 1 (GST-tagged)
# Assay: gcPBM binding intensity (ln(normalized median fluorescence intensity)); higher = stronger DNA binding
# Procedure, shortened: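 Binding of GST-tagged P. falciparum DNA-binding domains, expressed in E. coli and used at about 25 μg on average, was carried out for 1 h in 1× PBS containing 1% milk, 0.2 mg/ml BSA, 0.5% salmon testes DNA and 0.03% Triton X-100. The target was an Agilent 4 × 180k array of primer-extended double-stranded 36-bp intergenic genomic probes plus negative controls, read with Alexa488 anti-GST antibody at 488 nm. Binding intensity is the highest Masliner-normalised natural-log median intensity across replicate spots of either probe orientation.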
row,Sequence,gcPBM binding intensity (ln)
1,ATATGTTTATTTATTTGTACTTATCATATAATAACA [XGTACX_site5486],7.05
2,TGTATATTTTAGTGATGTACTAATATTATTACTAAT [XGTACX_site3952],6.99
3,TGCTTAGCACACTATCTACTTCCTTTGTTTCATAAA [GTGCAC_negctrl_site495],7.25
4,TTCATTTATATAATCACACATTTTATCATCTATGTT [CACACA_site4327],7.11
5,ATCGTTATATAATGTTGTACTTGTTATATATATATA [XGTACX_site7582],8.88
6,GCATGCACGGAAAAAAGTACATATATAAATTTGGTT [XGTACX_site3393],7.2
7,GGTTCTAAAAAGGGAAGTACATGGAAAAATATAAAT [XGTACX_site4639],6.97
8,TTTTTTAAATATATTTGTACATATGAAATAAAGATA [XGTACX_site3841],6.99
9,AAAATTTAGCAAAGGTGTACAAAAGATAATTAGAGT [XGTACX_site3467],7.62
10,AAAATTATTATGAAAAGTACAAATATGTAAACATAC [XGTACX_site5517],6.99
11,ATTCTAATTAGTAAAGTGCAGATAAAATGATGCCCT [GTGCAC_site9578],7.67
12,CAGCATGGTATACCTATAAAATATATATACTAACAT [TGCATGCA_negctrl_site51],6.95
13,TTTTTAAAAAATAAGAAAAAATAAATATATTACAAA [XGTACX_negctrl_site191],6.78
14,ATGTTACACAGACACACACACATAAAAAAACAAAAA [CACACA_site7516],7.16
15,GGCATATATACATATGGTACACATTTATTAATACCG [XGTACX_site2710],7.03
16,CACATACATATATATACACACAAATATATATACGCA [CACACA_site791],7.15
17,GATGTGTATATTAAATGTACGAACAGTTGAGGCGAA [XGTACX_site7853],7.39
18,AGGATATAAAGTTGTGCATGTCAAGTGCACCGTATT [TGCATGCA_site451],12.2
19,AGAAAAATCTAAATTCGTACATAACGTTTAAACATA [XGTACX_site2511],6.79
20,GTTTTATTCCATTATTGTACTTAATATAAAGAAACT [XGTACX_site3054],7.41
21,ATAATAATATGTGGGTGTACATATACACATATATAT [XGTACX_site4356],7.22
22,ATAAATTGAAGTAAATTTGACCTTTTTTTTTTTTTT [GTGCAC_negctrl_site354],7.02

row,Sequence,gcPBM binding intensity (ln)
1,AGAACATGCAAACATGCACACAGAAAAAAAAAATAT [CACACA_site8442],8.26
2,TTTATTGATAATATATATATATATATATATATATAT [GTGCAC_negctrl_site552],9.61
3,AATATCTTAGTGGATACACACATATAAATGGGTATT [CACACA_site4426],6.81
4,TCATATGTTAAACACACACACACACCGAAAAAAACA [CACACA_site9067],7.4
5,AAAAAATTAAAAAAAAAAAAATCATGAAAAAAACAA [CACACA_negctrl_site1673],6.84
6,CCTAAATAAATGGACACACACATATATATATATATA [CACACA_site1439],9.33
7,CTTATATTAAGTATTACACACATATATATAAATGCA [CACACA_site4581],7.03
8,TATATATATATAAGAAGTACAGAAAATTAGAAAAAA [XGTACX_site8773],9.11
9,TAGAAATAAGAAAAATGTACATATAATATTGAAAGT [XGTACX_site3043],7.41
10,TTTTACGTAATATTTATACACACGAACCTTATTAAT [CACACA_site2300],6.96
11,AGTCTATAGTAATTTACACACAAAAAAATATCAGGA [CACACA_site7620],7.09
12,AGTAGTCTGGAGAAAAGTACATAGTATCTGGTAGCT [XGTACX_site2027],6.92
13,ACAAAAAAAAAAAAAAAAAGAAGAATATATCTATAT [CACACA_negctrl_site759],6.77
14,TATCATACAATATTCACACAAATAAATTGACATATT [CACACA_site5891],6.95
15,AAAAAGGAAATAATAACACACATTAGTAATTATAAA [CACACA_site7573],6.58
16,CACAGACACGGACACACACACACAAAAAAAAAAAGA [CACACA_site4436],7.27
17,TATTAAAAAAATATTTGTACTTAAAATTTATTATAT [XGTACX_site1467],7.04
18,TATTTTCTTTAATTAATTATTGGTCTGAATGGGGTT [CACACA_negctrl_site418],7.02
19,AGAGGAGTAAAACAAAACAAAGAGAAATAAACACAC [XGTACX_negctrl_site386],8
20,AATTAATAAATATTATATGTTAATATTTTTTTTGTT [CACACA_negctrl_site1692],6.77
21,TTTCATATCTTGTCAAGTACATATTTTTATTTTCTT [XGTACX_site2160],6.82
22,AAAAAATATAATAATTGTACACATGCACACACAAAT [XGTACX_site1563],8.22

row,Sequence,gcPBM binding intensity (ln)
1,ACTTAATATCGGTACACACACAAGATAAGAATTATG [CACACA_site894],7.46
2,TTTTTATAAAAATGAACACACACATATATATATATA [CACACA_site9160],9.39
3,AATAACACTATTTAACGTACAAAAAAAAAAAAGAAA [XGTACX_site3721],7.25
4,ATACTAAAAATGAATGTACACATATATATATATATA [TGCATGCA_negctrl_site209],9.28
5,TATAATAAAATATTTTGTACGTATATTTTAATATTT [XGTACX_site2582],7.2
6,AAAAAAAATAAAAATAGTACCCAAAAAATTATGAAT [XGTACX_site6641],6.98
7,TATGCACTTTAGGGCAGTACGTCAACATTATCTTTA [XGTACX_site3382],7.93
8,CCTCATACGAAATATAAACACACATACAATAAATAA [CACACA_site8620],7.06
9,ATAAATTTTTTTTTTTTTTTTTTTTTTTTTTTTTTT [CACACA_negctrl_site508],8.96
10,ATTTTTTTCATAGACACACACAATATATCTGTTTCC [CACACA_site3023],7.18
11,TATATTTATTATAACACACACATATAAATATTATAG [CACACA_site6726],7.11
12,TGTTAAAATTATTTGGTGCACTTGTTTTACCTTATT,11.3
13,CATTATTCTTTTAATATACACACTTTGTCTTTTCGC [CACACA_site2762],7.05
14,TCTCATAGTAAACACACACACACACCCACATATATA [CACACA_site5034],7.16
15,AAGATAAAATGATGCACACAAAAGGGTGTAATATAT [CACACA_site1706],7.48
16,GAAGTTTTCTTAAAGATGCACTTTTTAAAAATAAAA [GTGCAC_site9941],9.06
17,TCTTCTTTTTTTTTTTTGTATTATTATAAATATTAT [CACACA_negctrl_site1668],7.06
18,TTTTTTTTTTTTAATGCACACAATATATAATATGTA [CACACA_site3694],7.37
19,TTTTTTTTTTTTCAATCACACATGTTTTAATTATTT [CACACA_site5532],6.92
20,TGTACGTTTTATAACACACACACAAAAAAAAAAAAA [CACACA_site3875],7.09
21,TGTAATAATATTTATGTGCACATATATTAAACTATA [GTGCAC_site9584],8.72
22,TCATTTCACAGACACACACACACAAGATATTTCCTT [CACACA_site7774],7.21

row,Sequence,gcPBM binding intensity (ln)
1,TTTCTTCTTCAATGTTGTACTTTTCTCTTTTCTTAA [XGTACX_site1017],7.26
2,GTTCATAAAAATTTTTGTACCCATAAAATATTCCTC [XGTACX_site8611],7.11
3,GTAGGTGTTTTTGGTTGTACATATAAATATATATAC [XGTACX_site3380],7.37
4,TTTTTTTTTTTTAATTGTACTTATTAAAAAAAGCAA [XGTACX_site8713],7.07
5,AGATAAATATATTGTAGTACAGGAGCATAAATATAT [XGTACX_site8267],7.08
6,TATTTTCATTATACTACTTCGAAGATACCCTTTTTT [CACACA_negctrl_site256],6.79
7,TATAAACATTAAAGGTGTACAATTTAATTTCAATTT [XGTACX_site2944],7.08
8,GTTCTTCCTTGTAAATGTACAAATACAAAATGTTCC [XGTACX_site6738],7.5
9,GATATATATGTTCACACACACATGGAAATATATATA [CACACA_site4371],7.29
10,TTAAGATCCTAAAAAACACACAATTGCGAATAATAA [CACACA_site6005],6.83
11,ATATCATAAAAAATGTGTACATATATGAACATATAA [XGTACX_site2239],7.14
12,GGAAATTAACAGAACACAATGTAACAATTTCTAACA [CACACA_negctrl_site1250],6.73
13,TGGGAAAAAATATATGCACACCCCCCAAAAAAAAAA [CACACA_site8696],10.8
14,AATTCTTTATTATATGCACACGTACATATAATATAT [CACACA_site8621],7.16
15,AAAAAATGTTATAAAAGTACATAATTTATCTACCAT [XGTACX_site3035],6.94
16,TAACTTTGGAGGAGCTGTACGATTATTTTGATCCTT [XGTACX_site2514],6.81
17,AAAAAATTTCAAATAACACACACTAATATAAATATG [CACACA_site6783],6.91
18,TTTAAAAAATAATATTGTACTATTCTCCCAATTTCT [XGTACX_site7079],6.57
19,TTTTTATATAATTTAACACACATTTCATATAAAAAA [CACACA_site3103],7.11
20,ATGTGAAAATAAGACACACTCAAAAGGTTTATATTA [CACACA_site4595],6.84
21,ATATACTGTATGAAAGCACACATACTTATTACTAAC [CACACA_site9384],7.04
22,AAAAAATGAAAAAACTGTACGCAATTTTGTTTTTAT [XGTACX_site2299],7.55
